This is an account of results in publication PMC9911399, “Two distinct binding modes provide the RNA-binding protein RbFox with extraordinary sequence specificity”.

Positions count from the first letter of the chain named. This is one part of the list.

T1: RBFOX1 RRM (Homo sapiens, UniProt Q9NWB1 109-208)
T1 sequence: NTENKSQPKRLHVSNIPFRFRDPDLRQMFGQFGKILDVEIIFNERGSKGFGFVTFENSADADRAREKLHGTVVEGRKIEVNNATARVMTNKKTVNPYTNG

B1: UGGUUUA (DNA:RNA)
RNA: GGGAGACCGGAAUUCAGAUUGUCCUGGUUUAUUAAAUCCCGUCGUAGCCACCA
DNA 1: CAATCTGAATTCCGGTCTCCC
DNA 2: TGGTGGCTACGACGGGATT
B2: CGGUCCU (DNA:RNA)
RNA: B1 RNA with U25C, U29C, U30C, A31U
DNA 1: CAATCTGAATTCCGGTCTCCC
DNA 2: TGGTGGCTACGACGGGATT
B3: UCUGGCU (DNA:RNA)
RNA: B1 RNA with G26C, G27U, U28G, U29G, U30C, A31U
DNA 1: CAATCTGAATTCCGGTCTCCC
DNA 2: TGGTGGCTACGACGGGATT
B4: GUGUACC (DNA:RNA)
RNA: B1 RNA with U25G, G26U, U29A, U30C, A31C
DNA 1: CAATCTGAATTCCGGTCTCCC
DNA 2: TGGTGGCTACGACGGGATT
B5: CUAGCGA (DNA:RNA)
RNA: B1 RNA with U25C, G26U, G27A, U28G, U29C, U30G
DNA 1: CAATCTGAATTCCGGTCTCCC
DNA 2: TGGTGGCTACGACGGGATT
B6: AGUGUAG (DNA:RNA)
RNA: B1 RNA with U25A, G27U, U28G, U30A, A31G
DNA 1: CAATCTGAATTCCGGTCTCCC
DNA 2: TGGTGGCTACGACGGGATT
B7: UUUCUAA (DNA:RNA)
RNA: B1 RNA with G26U, G27U, U28C, U30A
DNA 1: CAATCTGAATTCCGGTCTCCC
DNA 2: TGGTGGCTACGACGGGATT
B8: GCACAAG (DNA:RNA)
RNA: GGGAGACCGGAAUUCAGAUUGUCCGCACAAGUUAAAUCCCGUCGUAGCCACCA
DNA 1: CAATCTGAATTCCGGTCTCCC
DNA 2: TGGTGGCTACGACGGGATT
B9: AAGUGAU (DNA:RNA)
RNA: B1 RNA with U25A, G26A, U29G, U30A, A31U
DNA 1: CAATCTGAATTCCGGTCTCCC
DNA 2: TGGTGGCTACGACGGGATT
B10: UACCAGG (DNA:RNA)
RNA: B8 RNA with G25U, C26A, A27C, A30G
DNA 1: CAATCTGAATTCCGGTCTCCC
DNA 2: TGGTGGCTACGACGGGATT
B11: GCGCCCG (DNA:RNA)
RNA: B8 RNA with A27G, A29C, A30C
DNA 1: CAATCTGAATTCCGGTCTCCC
DNA 2: TGGTGGCTACGACGGGATT
B12: GCAAUGU (DNA:RNA)
RNA: B8 RNA with C28A, A29U, A30G, G31U
DNA 1: CAATCTGAATTCCGGTCTCCC
DNA 2: TGGTGGCTACGACGGGATT
B13: GACUCAA (DNA:RNA)
RNA: B8 RNA with C26A, A27C, C28U, A29C, G31A
DNA 1: CAATCTGAATTCCGGTCTCCC
DNA 2: TGGTGGCTACGACGGGATT
B14: CGUUCUU (DNA:RNA)
RNA: B1 RNA with U25C, G27U, U29C, A31U
DNA 1: CAATCTGAATTCCGGTCTCCC
DNA 2: TGGTGGCTACGACGGGATT
B15: GUAAUUC (DNA:RNA)
RNA: B8 RNA with C26U, C28A, A29U, A30U, G31C
DNA 1: CAATCTGAATTCCGGTCTCCC
DNA 2: TGGTGGCTACGACGGGATT
B16: GACAAUA (DNA:RNA)
RNA: B8 RNA with C26A, A27C, C28A, A30U, G31A
DNA 1: CAATCTGAATTCCGGTCTCCC
DNA 2: TGGTGGCTACGACGGGATT
B17: AUCGUUA (DNA:RNA)
RNA: B1 RNA with U25A, G26U, G27C, U28G
DNA 1: CAATCTGAATTCCGGTCTCCC
DNA 2: TGGTGGCTACGACGGGATT
B18: ACGCCGU (DNA:RNA)
RNA: B8 RNA with G25A, A27G, A29C, A30G, G31U
DNA 1: CAATCTGAATTCCGGTCTCCC
DNA 2: TGGTGGCTACGACGGGATT
B19: GGUUACC (DNA:RNA)
RNA: B8 RNA with C26G, A27U, C28U, A30C, G31C
DNA 1: CAATCTGAATTCCGGTCTCCC
DNA 2: TGGTGGCTACGACGGGATT
B20: AGACGGU (DNA:RNA)
RNA: B8 RNA with G25A, C26G, A29G, A30G, G31U
DNA 1: CAATCTGAATTCCGGTCTCCC
DNA 2: TGGTGGCTACGACGGGATT

The assay has as its target T1, RBFOX1 RRM. In words: EMSA; HiTS-Eq, 1 nM pool, 10 min; buffer printed only for the single-RNA assays: 10 mM Tris pH 7.5, 150 mM NaCl, 3.4 mM EDTA, 0.001% NP-40, 30 C. To be noted: tags: His6 N-terminal (pET28a); label: 5' 32P. In short, it runs like this:
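These values rest on relative association constants, computed from read-count changes of each RNA species versus the control reaction and normalised to the cognate motif. Reads came from free RNA recovered by 8% native PAGE after purified RbFox RRM (wild type or mutant) at increasing concentrations was equilibrated for 10 min in 50 µL with 1 nM of a 5′-radiolabelled pool with 7 randomized nucleotides and DNA-annealed flanks.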
Background: In EMSA bound probe runs differently from free probe, usually more slowly.
With B1, the binding signal was 0.016 KA relative to UGCAUGU. For B2, the binding signal was 0.0115 KA relative to UGCAUGU. Take B3: the binding signal was 0.0184 KA relative to UGCAUGU.

As for B4, the binding signal was 0.0122 KA relative to UGCAUGU.

For the molecule B5, the binding signal is 0.00779 KA relative to UGCAUGU.

B6: the binding signal was 0.0123 KA relative to UGCAUGU. In the case of B7, the binding signal is 0.00383 KA relative to UGCAUGU. B8: the binding signal was 0.00766 KA relative to UGCAUGU. Consider B9, for which the binding signal is 0.0054 KA relative to UGCAUGU. As for B10, the figure is 0.00886 KA relative to UGCAUGU; as for B11, 0.0159 KA relative to UGCAUGU; as for B12, 0.01 KA relative to UGCAUGU. For the molecule B13, the binding signal is 0.00562 KA relative to UGCAUGU. On to B14, for which the binding signal is 0.0146 KA relative to UGCAUGU. For the molecule B15, the binding signal is 0.0044 KA relative to UGCAUGU. With B16, the binding signal is 0.00231 KA relative to UGCAUGU. On to B17, for which the binding signal was 0.00325 KA relative to UGCAUGU.

As to B18, the binding signal is 0.00555 KA relative to UGCAUGU.

Take B19: the binding signal is 0.0089 KA relative to UGCAUGU. Regarding B20, the binding signal is 0.0131 KA relative to UGCAUGU.
